In all, about 280,000 compounds went through this assay and about 100 (0.036%) were called active. This list was built around the results that the source calls inconclusive (neither active nor inactive); the mix of calls is not that of the screen. The call rests on the fitted dose curve; in most records, active means well fitted inhibition curve with a large enough effect in the signal ratio, with a control signal flat (not every such curve was filed as active); inconclusive means small, poorly fitted or top-dose-only effect, or effect the other way, or a change in a side signal; inactive means no such curve, though single readings can be large or run the other way; the % refers to the signal ratio. Where the call is inconclusive, the potency comes from a doubtful curve fit. A note “side channel” means that the fit belongs to a control or component signal, not to the main read-out.
biological target: Muscleblind-like protein 1 (Homo sapiens) (UniProt Q9NR56); test: qHTS Assay for Inhibitors of MBNL1-poly(CUG) RNA binding; conditions: TR-FRET MBNL1-His/biotin-(CUG)12 binding, 665/545 ratio; series mostly up to 57.5 µM
Method in brief: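 TR-FRET between His-tagged MBNL1 and biotin-(CUG)12 RNA, detected with Tb anti-His antibody (0.055 ng/ul) and streptavidin-XL665 (5 nM), 60 min at room temperature. Compounds titrated 92 nM to 58 uM; 665/545 nm ratio normalized to buffer and complex controls.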
Potency means the concentration at half of the fitted maximal effect; tags describe the fitted curve by direction and shape or compound fluorescence and quenching.

Sequence of UniProt Q9NR56 (Q9NR56 whole entry, looked up): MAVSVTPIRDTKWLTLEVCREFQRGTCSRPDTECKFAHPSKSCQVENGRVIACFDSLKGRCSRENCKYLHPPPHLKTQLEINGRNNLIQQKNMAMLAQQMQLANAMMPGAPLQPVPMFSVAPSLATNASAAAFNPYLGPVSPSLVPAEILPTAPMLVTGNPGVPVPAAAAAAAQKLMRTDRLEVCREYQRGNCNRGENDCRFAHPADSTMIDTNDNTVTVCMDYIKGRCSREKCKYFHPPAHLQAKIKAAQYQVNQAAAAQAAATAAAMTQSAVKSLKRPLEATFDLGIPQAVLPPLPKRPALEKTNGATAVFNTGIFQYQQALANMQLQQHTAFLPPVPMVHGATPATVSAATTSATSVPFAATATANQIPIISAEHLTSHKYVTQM

SMILES	Potency
CCN(CC)S(=O)(=O)c1ccc(N/N=C(\C)c2ccncc2)c([N+](=O)[O-])c1	inconclusive: 3.16 µM [quencher, side channel, partial curve]
COc1ccc(-c2cc(-c3ccccc3)n[nH]2)c(O)c1	inactive
O=C(CSc1ccc(Cl)cc1)N1CCN(c2ccc(Cl)cc2[N+](=O)[O-])CC1	inconclusive: 28.2 µM [quencher, side channel, partial curve]
Cc1ccc(S(=O)(=O)N(C)CCCC(=O)N2CCOCC2)cc1	inconclusive: 5.62 µM [fluorescent, side channel, single point]
COc1ccccc1-n1cnnc1SCC(=O)Nc1ccccc1	inactive
CC1CCC2C(=O)N(c3ccc(C(=O)Oc4cccc5cccnc45)cc3)C(=O)C2C1 (stereo unspecified)	inactive
Cc1cc(C)c2sc(C)[n+](CCCS(=O)(=O)[O-])c2c1	inactive
CCOC(=O)c1ccccc1NC(=O)CN(c1ccc(OCC)cc1)S(C)(=O)=O	inactive
CC(=O)c1cccc(N/C=C\C(=O)c2ccc(C)cc2)c1	inconclusive: 7.08 µM [quencher, side channel, partial curve]
O=C(CCN1CCOCC1)NNC(=O)Nc1cccc([N+](=O)[O-])c1	inconclusive: 22.4 µM [quencher, side channel, partial curve]
CCOC(=O)Cn1nc(/C=C/c2ccc(C)cc2)ccc1=O	inconclusive: 15.8 µM [quencher, side channel, single point]
CCOC(=O)N1CCN(Cc2nc3cc([N+](=O)[O-])ccc3n2CC)CC1	inconclusive: 31.6 µM [quencher, side channel, single point]
CC(SCc1ccccc1)C(=O)Nc1ccccc1F (stereo unspecified)	inactive
COc1ccc(C2C=C(c3ccccc3)Nc3nnnn32)cc1 (stereo unspecified)	inconclusive: 39.8 µM [quencher, side channel, single point]
COc1cccc(/C=N/NC(=O)c2cccc([N+](=O)[O-])c2)c1OS(=O)(=O)c1ccccc1	inconclusive: 25.1 µM [quencher, side channel, partial curve]
COC(=O)c1ccccc1NC(=O)Cn1nnc(-c2ccc(OC)cc2)n1	inconclusive: 39.8 µM [quencher, side channel, single point]
CCN(CC)C(=O)C1CCCN(c2ccc([N+](=O)[O-])cc2/C=N/NC(=O)c2ccc([N+](=O)[O-])cc2)C1 (stereo unspecified)	inconclusive: 3.16 µM [quencher, side channel, full curve, poor fit]
C[C@@H](CO)NC(=O)c1ccc2c3n(nc2c1)-c1ccccc1CO3	inconclusive: 14.1 µM [quencher, side channel, partial curve]
CCOC(=O)c1ccc(COC(=O)c2cc3ccccc3oc2=O)o1	inconclusive: 35.5 µM [quencher, side channel, single point]
O=C1OC(Cc2ccccn2)C(=O)C1=C1SCCS1 (stereo unspecified)	inconclusive: 1.78 µM [quencher, side channel, partial curve, poor fit]
CCOc1ccc(C(=O)C[n+]2ccc(C(=O)NCc3ccccc3)cc2)cc1	inconclusive: 12.6 µM [quencher, partial curve]

SMILES	Potency
CCCc1n[nH]c(=S)n1Cc1ccco1	inactive
Cc1ccc(C(=O)N/N=c2\oc3ccccc3cc2C(N)=O)cc1	inconclusive: 15.8 µM [quencher, partial curve]
O=C(Nc1ccc2ccccc2c1)c1cnccn1	inactive
COc1ccccc1N1CCN(C(=O)CSc2ncccc2-c2nc3ccccc3[nH]2)CC1	inactive
Cc1ccc(NC(=S)N/N=C/c2c(C)[nH]c3ccccc23)cc1	inactive
COc1cc([C@@H]2[C@H]3CNCC=C3C(C#N)=C(N)C2(C#N)C#N)ccc1OC(C)C	inconclusive: 20 µM [quencher, side channel, single point]
FC(F)Oc1ccc(NC(=S)NNc2ccnc3cc(Cl)ccc23)cc1	inactive
Cc1cccc(NC(=O)CCS(=O)(=O)c2cccc3nonc23)c1C	inconclusive: 2.51 µM [quencher, side channel, full curve]
CCOC(=O)C1(Cc2cccc(OC)c2)CCCN(C(=O)c2cc(C)[nH]n2)C1 (stereo unspecified)	inconclusive: 25.1 µM [quencher, side channel, partial curve]
CN(C)C(=O)c1cnc(Sc2ncc(C(F)(F)F)cc2Cl)n1C	inconclusive: 100 µM [inhibitor, single point]
Cc1noc(NS(=O)(=O)c2ccc(NC(=O)c3nn(-c4ccc(F)cc4)ccc3=O)cc2)c1C	inconclusive: 14.1 µM [quencher, side channel, partial curve]
COc1ccccc1N=c1oc2cc(O)ccc2cc1C(=O)NCC1CCCO1 (stereo unspecified)	inconclusive: 7.08 µM [quencher, side channel, partial curve]
CC1(C)CC(=O)c2cc(NC(=O)c3ccccc3)c(=O)oc2C1	inconclusive: 25.1 µM [activator, partial curve]
O=C(CSc1nc2c(c(=O)n1-c1ccc(Br)cc1)SCC2)NCC1CCCO1 (stereo unspecified)	inconclusive: 39.8 µM [quencher, single point]
O=C(c1ccco1)N1CCN(c2c([N+](=O)[O-])nn(-c3ccc(Cl)cc3)[n+]2[O-])CC1	inconclusive: 5.62 µM [quencher, side channel, partial curve]
Cc1ccc(OCCN2CCN(c3nc(NCc4ccco4)c4ccccc4n3)CC2)cc1	inactive
CCOC(=O)c1cc2c(=O)n3ccccc3nc2n(Cc2ccccc2)c1=N	inconclusive: 3.55 µM [quencher, side channel, partial curve]
COc1ccc2c(c1)-c1c(sn(-c3ccccc3)c1=S)C(C)(C)N2	inactive
CCN(CC)CCN1C(=O)c2ccccc2NC1c1ccccc1F (stereo unspecified)	inconclusive: 3.55 µM [quencher, side channel, partial curve]
CC(=O)c1ccc(NC(=O)c2sc3nc4n(c(=O)c3c2C)CCCCC4)cc1	inactive
O=C(O)c1cc(NC(=O)c2ccc(Cl)c([N+](=O)[O-])c2)cc(C(=O)O)c1	inconclusive: 22.4 µM [quencher, side channel, partial curve]

SMILES	Potency
COc1ccc(/C=N/Nc2nc(=O)[nH]nc2C)cc1OC	inconclusive: 25.1 µM [quencher, single point]
CSc1ccc(/C=C(\NC(=O)c2ccc(C)cc2)C(=O)Nc2cccc(C)c2)cc1	inconclusive: 0.1 µM [fluorescent, side channel, full curve, poor fit]
COc1ccc(/C=C2\SC(=S)N(CCC(=O)NCCCn3ccnc3)C2=O)cc1	inconclusive: 7.94 µM [quencher, side channel, partial curve]
CC(=O)c1ccc(NC(=O)CCNS(=O)(=O)c2cccc3nonc23)cc1	inconclusive: 17.8 µM [quencher, side channel, partial curve]
Cc1ccc(-c2cc(C(F)(F)F)n3ncc(C(=O)O)c3n2)cc1	inconclusive: 14.1 µM [quencher, side channel, partial curve]
CC1OC2(C)OC(=N)C1(C#N)C(C#N)(C#N)C2c1ccccc1 (stereo unspecified)	inconclusive: 22.4 µM [quencher, partial curve, poor fit]
CCOC(=O)CSc1ccc(S(=O)(=O)N(CC)CC)cc1[N+](=O)[O-]	inconclusive: 14.1 µM [quencher, side channel, partial curve]
O=C(NCc1ccncc1)/C(=N/O)c1ccccc1	inactive
Cc1ccc2nc(NC(=O)CCCc3nc4ccccc4s3)sc2c1	inactive
COCCNC(=O)/C(C#N)=C/c1c(N2CCN(C)CC2)nc2ccccn2c1=O	inconclusive: 7.94 µM [quencher, side channel, partial curve]
O=C(O)COc1ccc(/C=C/c2nc(-c3ccccc3O)n[nH]2)cc1	inconclusive: 25.1 µM [quencher, side channel, partial curve]
COC(=O)C1=CN(Cc2ccc(OC)c(OC)c2)C=C(C(=O)OC)C1c1ccc(O)cc1	inconclusive: 31.6 µM [quencher, side channel, single point]
CCOc1ccc(N2C(=O)/C(=C\c3ccc(O)c(OC)c3)S(=O)(=O)C2c2cccc([N+](=O)[O-])c2)cc1 (stereo unspecified)	inconclusive: 25.1 µM [quencher, side channel, single point]
CCOc1cc(S(=O)(=O)NC2CCCC2)ccc1Cl	inconclusive: 39.8 µM [quencher, side channel, single point]
N#Cc1ccccc1-n1c(N)c(C(=O)N2CCCC2)sc1=S	inconclusive: 14.1 µM [quencher, side channel, partial curve]
Cc1ccnc(NC(=O)c2cc([N+](=O)[O-])cc([N+](=O)[O-])c2)c1	inconclusive: 2.82 µM [quencher, side channel, full curve]
CCCn1nc2cc(C(=O)NCc3ccccc3OC)ccc2c1OCC	inconclusive: 39.8 µM [quencher, side channel, single point]
Cc1ccc2nsnc2c1S(=O)(=O)Nc1cccc2nsnc12	inactive
COc1ccc(N=Nc2n(C)c3ccccc3[n+]2C)cc1	inconclusive: 20 µM [quencher, side channel, partial curve]

— PubChem BioAssay AID2675 (National Center for Advancing Translational Sciences (NCATS), 2010)
